From publication PMC4336329 (PLoS ONE, 2015)
In all, about 310,000 compounds went through this assay and about 2,200 (0.71%) showed an effect of 50% or more. Effects have a minus sign here. Some of the results follow.

Molecular target: human ether-à-go-go-related gene (hERG) potassium channel (human, UniProt Q12809)
Assay: primary screen, population patch clamp on CHO cells stably expressing hERG

Sequence of human ether-à-go-go-related gene (hERG) potassium channel (Q12809 whole entry, looked up): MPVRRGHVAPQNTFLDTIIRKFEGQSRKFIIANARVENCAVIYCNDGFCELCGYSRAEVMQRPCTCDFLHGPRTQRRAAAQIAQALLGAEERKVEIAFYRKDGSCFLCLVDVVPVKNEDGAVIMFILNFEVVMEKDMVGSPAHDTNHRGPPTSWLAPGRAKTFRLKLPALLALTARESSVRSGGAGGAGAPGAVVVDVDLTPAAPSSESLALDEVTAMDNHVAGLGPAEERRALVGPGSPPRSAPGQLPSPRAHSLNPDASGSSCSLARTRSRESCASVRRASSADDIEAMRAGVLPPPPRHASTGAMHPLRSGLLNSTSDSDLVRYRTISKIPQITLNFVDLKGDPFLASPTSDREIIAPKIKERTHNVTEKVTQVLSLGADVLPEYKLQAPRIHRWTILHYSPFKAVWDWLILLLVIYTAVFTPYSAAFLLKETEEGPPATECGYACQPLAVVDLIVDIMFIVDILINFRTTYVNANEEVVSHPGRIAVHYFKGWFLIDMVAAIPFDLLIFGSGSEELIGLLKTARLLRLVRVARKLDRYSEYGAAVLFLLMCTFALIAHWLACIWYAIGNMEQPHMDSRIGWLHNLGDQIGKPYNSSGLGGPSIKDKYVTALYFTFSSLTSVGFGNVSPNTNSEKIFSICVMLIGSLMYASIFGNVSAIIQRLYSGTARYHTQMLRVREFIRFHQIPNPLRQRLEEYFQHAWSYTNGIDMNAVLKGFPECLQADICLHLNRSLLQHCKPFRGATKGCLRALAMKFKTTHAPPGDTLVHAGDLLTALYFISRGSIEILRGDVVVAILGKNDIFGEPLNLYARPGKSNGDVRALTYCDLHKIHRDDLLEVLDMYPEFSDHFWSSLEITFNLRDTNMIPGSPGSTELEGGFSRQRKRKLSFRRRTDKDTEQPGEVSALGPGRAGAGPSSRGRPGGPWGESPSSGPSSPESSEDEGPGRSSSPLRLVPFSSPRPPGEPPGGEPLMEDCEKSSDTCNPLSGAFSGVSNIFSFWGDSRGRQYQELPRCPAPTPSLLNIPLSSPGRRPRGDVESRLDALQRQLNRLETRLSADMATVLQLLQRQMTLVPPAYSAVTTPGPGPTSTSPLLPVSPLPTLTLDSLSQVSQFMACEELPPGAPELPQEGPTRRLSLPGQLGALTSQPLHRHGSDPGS

| Structure (SMILES) | hERG current change (%, negative = inhibition) at 1uM |
| --- | --- |
| CC(=O)Nc1ccc(NC(=O)CC2CCCC2)cc1 | 13.6% |
| COc1ccc(Cl)cc1NC(=O)NCCN1CCNC1=O | 5.75% |
| O=C(NCCn1cc(SCc2ccccc2)c2ccccc21)c1ccccc1F | 16% |
| COc1ccc(S(=O)(=O)Cc2ccc(C(=O)NCc3cccs3)o2)cc1 | -6.95% |
| CC(=O)Nc1ccc(NC(=O)CSc2nc3ccccc3nc2N2CCC(C)CC2)cc1 | 10.9% |
| CC(C)(C)c1ccc(OCCC(=O)OCC(=O)N2c3ccccc3NC(=O)C2(C)C)cc1 | 6.31% |
| CC(C)(C)OC(=O)NCCc1nnc(SCC(=O)Nc2ccc(Br)cc2)o1 | 4.83% |
| CCOC(=O)c1ccc(-n2c(CN3CCN(CCO)CC3)nc3ccc([N+](=O)[O-])cc3c2=O)cc1 | 7.31% |
| COc1ccc(CCNS(=O)(=O)c2ccc(Br)cc2)cc1 | -1.33% |
| O=C(O)CCCn1cc(NC(=O)c2ccc(F)cc2)cn1 | 21.8% |
| Cn1cc(C=C2C(=O)NC(=O)NC2=O)c2ccccc21 | 13.4% |
| COn1c(SCC(=O)N(C)C)nc2ccccc2c1=O | 6.45% |
| CCc1nnc(NC(=O)c2ccc(S(=O)(=O)N(CC(C)C)CC(C)C)cc2)o1 | 4.19% |
| CCOC(=O)N1CCN(C(=O)C(=O)NNC(=O)COc2ccc(Cl)c(C)c2)CC1 | 6.06% |
| COC(=O)c1cccc(NC(=O)C2COc3ccccc3O2)c1 (stereo not shown) | 14.8% |
| CCc1c(C(=O)NNC(=S)Nc2ccc(S(=O)(=O)Nc3ncccn3)cc2)csc1C | 6.74% |
| CCN(CC(=O)Nc1cccc(OC)c1)C(=O)C1CCN(C(=O)Nc2ccccc2)CC1 | 17.3% |
| COc1cccc(/C=C/C(=O)OCC(=O)c2ccc3c(c2)NC(=O)CO3)c1 | 8.26% |
| CCOP(=O)(OCC)C(NC(=O)Cc1ccccc1)C(Cl)(Cl)Cl (stereo not shown) | 14.8% |
| O=C(NNc1cccc(Cl)n1)c1cccnc1Cl | 14.1% |
| Cc1ccc(OC(C)C(=O)Nc2cc(C)on2)cc1 (stereo not shown) | 6.11% |
| COc1ccc(OC)c(NC(=O)c2sc3nc(Cc4ccccc4)cc(C(F)(F)F)c3c2N)c1 | 15% |

| Structure (SMILES) | hERG current change (%, negative = inhibition) at 1uM |
| --- | --- |
| Cc1ccc(N2C(=O)N(CC(=O)Nc3ccc([N+](=O)[O-])cc3)C(=O)C2C)cc1 (stereo not shown) | 8.15% |
| O=C(CN1CCC(n2nnc3cc(C(F)(F)F)ccc32)CC1)NNC(=O)c1ccco1 | -4.93% |
| CCOc1ccc(C(=O)OCC(=O)NCCNC(=O)COC(=O)c2ccc(OCC)cc2)cc1 | 8.24% |
| Cc1c(Cl)cccc1NC(=S)N(Cc1cccs1)C1CCCC1 | 11.6% |
| COc1ccc(S(=O)(=O)CCC(=O)Nc2cc(C)ccc2OC)cc1 | -2.28% |
| COc1cc(/C=C2/SC(=S)N(c3ccccc3)C2=O)ccc1Oc1nc(N2CCOCC2)nc(N2CCOCC2)n1 | 4.11% |
| CN=c1scc(C)n1/N=C/c1cc(Br)c(O)c(Br)c1 | 3.22% |
| CCO[C@H]1OC(C(=O)NC2CC2)=C[C@@H](c2ccc(C(F)(F)F)cc2)[C@@H]1CCCO | -11.9% |
| CCC1C(=O)C(C)(C)C(=O)OC1c1ccc([N+](=O)[O-])cc1 (stereo not shown) | 9.82% |
| Cc1ccc(Cn2c(CCNc3nc(-c4ccc(Cl)c([N+](=O)[O-])c4)cs3)nc3cc(Cl)c(Cl)cc32)cc1 | 6.04% |
| CCOC(=O)c1cc(-c2ccccc2)nc2nc(N(CC)CC)sc12 | 13.4% |
| Cc1ccc(-n2c(=O)[nH]c3c(C(N)=O)nc(C(C)C)nc32)cc1 | 9.4% |
| COc1cc2c3nnc(-c4ccccc4)c-3cn(Cc3ccc(F)cc3)c2cc1OC | -26% |
| CCCNC(=O)c1ccccc1NC(=O)CN(c1ccccc1)S(=O)(=O)N(C)C | 2.44% |
| O=C(COC(=O)c1cc(F)cc(F)c1)Nc1cccnc1Cl | 2.62% |
| Cc1ccc(C(=O)Oc2cccc(NC(=O)c3ccccc3)c2)cc1C | 19.9% |
| Cc1nnc2sc(SCc3cccc(Cl)c3)nn2c1=O | -4.35% |
| O=C(NCCc1c[nH]c2ccccc12)C1CCC(=O)N(CCc2cccc(F)c2)C1 (stereo not shown) | 11.4% |
| C1CNCCN1.C[C@]12CC[C@@H]3c4ccc(OS(=O)(=O)O)cc4CC[C@H]3[C@@H]1CCC2=O | 15.7% |
| O=S(=O)(Nc1cccnc1Cl)c1ccc(-c2ccccc2)cc1 | 14.1% |
| CC(C)Cc1nnc(NC(=O)CCC(=O)NC2CC2)s1 | 18.9% |
| C=CCN=C(NC#N)SCC(=O)NC(C)(C)C | 7.91% |

| Structure (SMILES) | hERG current change (%, negative = inhibition) at 1uM |
| --- | --- |
| Cc1cccnc1NC(=O)c1ccc(NS(=O)(=O)c2ccc3[nH]c(=O)[nH]c3c2)cc1 | -3.65% |
| O=C(Nc1cnc2ccccn2c1=O)c1ccc(F)cc1 | 10.6% |
| O=C(NO)C1CC2C=CC1C2 (stereo not shown) | 11.2% |
| CCn1cc([N+](=O)[O-])c(C(=O)Nc2ccn(Cc3ccccc3F)n2)n1 | 13.4% |
| COc1ccc(CC(=O)Nc2nc(-c3cccc([N+](=O)[O-])c3)cs2)cc1 | 8.71% |
| Cc1ccc(OCC(=O)Nc2cccc(O)c2)cc1C | 6.45% |
| COc1ccc(S(=O)(=O)N(C)CC(=O)NC2CC2)cc1OC | 15.2% |
| CCN1CCN(C(=O)c2cc3cc(Cl)ccc3[nH]2)CC1 | -8.42% |
| CC(=O)Nc1ccc(S(=O)(=O)N2CCN(S(=O)(=O)N3CCCCC3)CC2)cc1 | 7.5% |
| N#Cc1c2n(c3c(-c4ccccc4)ncnc13)CCC2 | 9.7% |
| Cc1cccc(N=Cc2c(O)cc(C)oc2=O)c1 | 4.56% |
| Cc1ccc2c(c1)nnn2C1CCN(S(C)(=O)=O)CC1 | -23.1% |
| O=c1[nH]c2c(s1)C(c1cccnc1)C1C3CCC(C3)C1S2 (stereo not shown) | 3.15% |
| Cc1ccc(C)c(NC(=S)NC2CC3CCCC(C2)N3CC(C)C)c1 (stereo not shown) | -1.85% |
| CCCCC(=O)Nc1ccc(C(=O)N2CCN(C)CC2)cc1 | 10.7% |
| COc1ccc(-c2nnn(CC#N)n2)cc1OC | 9.57% |
| O=C(N/N=C/c1c(O)n(Cc2ccco2)c(=O)[nH]c1=O)c1ccccc1O | 8.67% |
| O=C(O)CCn1nnc2ccccc21 | 7.98% |
| CC(C)(C)c1nnc(NC(=O)Cc2ccc(Br)cc2)s1 | 12.5% |
| COc1cccc(OCCNC(=O)c2ccccc2Sc2ccccc2C#N)c1 | 10% |
| Cc1ccc2cc(C3CC(c4cccs4)=NN3S(C)(=O)=O)c(Cl)nc2c1 (stereo not shown) | 8.28% |
| Cc1ccc(N=C(N(C)C)P(=O)(N(C)C)N(C)C)c(C)c1 | 7.77% |

| Structure (SMILES) | hERG current change (%, negative = inhibition) at 1uM |
| --- | --- |
| CC(=O)N1CCCN(Cc2cn(-c3cccc(C)c3)nc2-c2cccc(F)c2)CC1 | 6.18% |
| CC(=O)C[C@H](O)CC(=O)[C@H]1OC(=O)CCCCCCCc2ccccc21 | 9.33% |
| O=C(CSc1nc(=O)n2ccccc2n1)N1N=C(c2cccs2)CC1c1ccc(F)cc1 (stereo not shown) | 5.37% |
| CC1CC1C(=O)Nc1nc(-c2ccccn2)cs1 (stereo not shown) | 10.1% |
| O=C(NCc1ccc(-c2nc3ccccc3s2)cc1)c1ccc(Br)o1 | 16% |
| CSc1ccccc1NC(=O)c1cnc2n(c1=O)CCS2 | 11.8% |
| CCOC(=O)c1ccc(Nc2nc(N3CCOCC3)nc(N3CCOCC3)n2)cc1.Cl | 26.5% |
| COc1cccc(NC(=O)CCC(=O)N2CC(C)Oc3ccc(C)cc32)c1 (stereo not shown) | 15.1% |
| COc1ccccc1CNC(=O)CCC(=O)N1CC(C)Sc2ccccc21 (stereo not shown) | 0.487% |
| O=C(NCc1ccccc1Cl)C(=O)NCC1OCCN1S(=O)(=O)c1cccs1 (stereo not shown) | -0.171% |
| O=C(NC(=S)NCc1ccco1)c1cccc(Cl)c1 | 11.1% |
| O=C(N/N=C/c1ccc(Br)o1)c1ccc2c(c1)OCCO2 | 9.58% |
| Cc1onc(-c2c(F)cccc2Cl)c1C(=O)N1CCN(S(C)(=O)=O)CC1 | -4.91% |
| O=C1C(C2=NC(c3ccccn3)C3C(=O)N(c4ccc(Cl)cc4Cl)C(=O)C23)=C(O)c2ccccc21 (stereo not shown) | 5.49% |
| C=CCNC(=O)c1oc2ccc(S(=O)(=O)N(CC)CC)cc2c1C | 8.48% |
| COc1ccc(S(=O)(=O)NCCc2ccc(F)cc2)cc1 | 7.42% |
| CCOc1cccc(CN2CCC(Oc3ccc(C(=O)N4CCCC4)cc3)CC2)c1 | 5.17% |
| Cc1nnsc1C(=O)N/N=C/c1c(F)cccc1Cl | 8.96% |
| CC(OC(=O)/C=C/c1cccs1)C(=O)NC1CCCCC1C (stereo not shown) | 17% |
| O=C(N/N=C/c1cccs1)c1ccc(-n2cccc2)cc1 | 20.9% |
| COc1ccc(NC(=O)N2c3ccc(OC)cc3C(C)=CC2(C)C)cc1 | 12.8% |
| CC(=O)c1ccc(N(CC(=O)NCc2ccc3c(c2)OCO3)C(=O)c2csnn2)cc1 | -0.552% |
